Two substances from publication PMC5913247 can be followed below.

Protein sequences, listed by entry. Tags and fused reporters are not part of them. Lines headed by an entry give the natural chain unless they say otherwise; changes in a name come on top. Chains listed by the source or under a name are the forms on record and can include a tag or linker. Residues count along the entry.
wild-type KIT (stem cell factor receptor) (P10721, residues 26-976): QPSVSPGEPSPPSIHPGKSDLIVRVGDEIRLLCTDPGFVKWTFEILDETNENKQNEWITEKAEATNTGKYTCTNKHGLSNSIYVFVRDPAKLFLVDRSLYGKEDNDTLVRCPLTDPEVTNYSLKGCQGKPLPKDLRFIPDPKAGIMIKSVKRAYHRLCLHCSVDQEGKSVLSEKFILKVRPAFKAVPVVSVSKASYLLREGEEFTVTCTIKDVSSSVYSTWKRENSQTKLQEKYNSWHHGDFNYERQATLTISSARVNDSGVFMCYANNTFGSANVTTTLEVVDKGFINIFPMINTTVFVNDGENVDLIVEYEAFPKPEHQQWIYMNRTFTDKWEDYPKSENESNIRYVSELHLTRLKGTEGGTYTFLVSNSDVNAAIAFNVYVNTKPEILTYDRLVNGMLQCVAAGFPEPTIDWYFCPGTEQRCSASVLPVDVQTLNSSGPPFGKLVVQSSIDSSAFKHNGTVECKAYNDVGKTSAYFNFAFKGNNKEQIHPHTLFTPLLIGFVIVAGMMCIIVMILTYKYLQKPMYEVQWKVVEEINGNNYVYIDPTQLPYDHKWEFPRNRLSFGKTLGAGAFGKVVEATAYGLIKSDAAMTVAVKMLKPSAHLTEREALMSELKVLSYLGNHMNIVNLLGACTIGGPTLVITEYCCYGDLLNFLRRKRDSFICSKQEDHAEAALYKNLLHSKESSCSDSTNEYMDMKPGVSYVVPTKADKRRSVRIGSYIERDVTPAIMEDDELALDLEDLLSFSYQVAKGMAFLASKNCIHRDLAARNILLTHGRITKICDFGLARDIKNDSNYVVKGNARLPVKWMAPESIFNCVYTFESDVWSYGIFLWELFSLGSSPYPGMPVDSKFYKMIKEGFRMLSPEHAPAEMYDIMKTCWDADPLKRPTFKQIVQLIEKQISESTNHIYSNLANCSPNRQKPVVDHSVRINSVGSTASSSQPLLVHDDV
KIT-D816V (oncogenic mutant of KIT) (P10721, form named): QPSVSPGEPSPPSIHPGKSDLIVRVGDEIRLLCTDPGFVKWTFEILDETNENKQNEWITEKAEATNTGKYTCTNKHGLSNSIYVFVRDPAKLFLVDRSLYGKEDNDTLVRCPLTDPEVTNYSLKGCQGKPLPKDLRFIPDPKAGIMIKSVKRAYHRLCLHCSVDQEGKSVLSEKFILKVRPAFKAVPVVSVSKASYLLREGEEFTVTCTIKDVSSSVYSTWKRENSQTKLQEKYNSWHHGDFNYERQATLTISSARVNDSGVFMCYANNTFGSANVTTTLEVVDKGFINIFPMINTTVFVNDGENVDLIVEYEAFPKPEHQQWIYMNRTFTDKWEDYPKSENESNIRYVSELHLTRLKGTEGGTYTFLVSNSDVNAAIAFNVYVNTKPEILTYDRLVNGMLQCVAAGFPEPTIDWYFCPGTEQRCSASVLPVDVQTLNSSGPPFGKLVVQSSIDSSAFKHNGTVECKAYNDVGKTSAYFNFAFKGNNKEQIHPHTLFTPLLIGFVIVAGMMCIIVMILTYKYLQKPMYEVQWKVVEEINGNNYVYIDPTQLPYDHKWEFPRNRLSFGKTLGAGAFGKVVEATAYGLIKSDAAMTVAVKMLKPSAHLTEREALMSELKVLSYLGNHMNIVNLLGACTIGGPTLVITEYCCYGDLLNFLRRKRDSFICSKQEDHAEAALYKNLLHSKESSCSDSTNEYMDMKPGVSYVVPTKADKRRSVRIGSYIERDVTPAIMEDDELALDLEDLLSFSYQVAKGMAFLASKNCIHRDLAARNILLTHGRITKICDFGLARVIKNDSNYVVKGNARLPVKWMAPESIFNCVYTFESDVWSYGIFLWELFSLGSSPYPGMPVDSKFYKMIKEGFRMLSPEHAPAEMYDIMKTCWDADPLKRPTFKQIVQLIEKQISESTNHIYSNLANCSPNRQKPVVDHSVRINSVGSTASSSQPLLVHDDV

Residue numbers refer to the chain shown, from its start. Results are given in words; binding and its absence hold for the method and conditions named. Binding seen in cells or lysates may run through a third protein. Some entries that bind do so weakly or less than the wild type. Tags and fused reporters may be left off the sequences shown.

Experiment [1] addresses T1, SLAP2-R121E-Myc-FLAG (SLAP2 SH2 domain mutant) (human) (UniProt Q9H6Q3).
T1 sequence: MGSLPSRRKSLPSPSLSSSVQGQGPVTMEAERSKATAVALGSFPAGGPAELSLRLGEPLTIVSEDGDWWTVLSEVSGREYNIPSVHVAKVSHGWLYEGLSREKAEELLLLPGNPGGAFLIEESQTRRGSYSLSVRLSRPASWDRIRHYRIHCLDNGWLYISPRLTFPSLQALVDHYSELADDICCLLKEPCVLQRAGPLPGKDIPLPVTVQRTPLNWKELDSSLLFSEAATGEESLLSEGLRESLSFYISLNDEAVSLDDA
Kind of experiment: co-IP; COS-1 cells co-transfected with KIT (wild type or D816V) and SLAP2-FLAG (wild type or R121E); 24 h later incubated with 100 ng/ml SCF for 5 min (KIT-D816V with or without SCF); lysed in 1% Triton X-100 buffer; immunoprecipitated with anti-FLAG, blotted for KIT.

The target in experiment [2] is T2, SRC-like adaptor protein 2 (SLAP2), wild type, Myc-FLAG tagged (human) (UniProt Q9H6Q3).
T2 sequence: T1 sequence with E121R
The description is as above.

For experiment [3], the target named is T2, SRC-like adaptor protein 2 (SLAP2), wild type, Myc-FLAG tagged (human). Kind of experiment: co-IP; as a1, but cells not stimulated with SCF: COS-1 co-transfected with wild-type KIT and SLAP2-FLAG, anti-FLAG immunoprecipitation, blotted for KIT.

Regarding “KIT-D816V (oncogenic mutant of KIT) (from UniProt P10721 26-976) (receptor)”, the binding result is given as “no binding” in experiment [1] and “binds” in experiment [2].

As for “wild-type KIT (stem cell factor receptor) (from UniProt P10721 26-976)”, the binding result is listed as “no binding (condition: cells not stimulated with SCF)” in experiment [3], “no binding” in experiment [1] and “binds” in experiment [2].
